Some of the results follow.
target: T1, OsWOX13 (Oryza sativa, UniProt Q5QMM3 1-267); experiment: protein-binding microarray (RPBM); PBS, 2% BSA, 51.3 ng/ul salmon testes DNA, 50 uM zinc acetate, 200 nM TF, 25 C, 1 h; high values mean tight binding; conditions: protein: recombinant; tags: N-terminal polyhistidine and DsRed monomer fusion (pET32a); label: CyDye5-dUTP incorporated in the synthesized complementary strand; 3' TTTTT single-stranded linker to array surface; dsDNA, one strand shown
T1 sequence: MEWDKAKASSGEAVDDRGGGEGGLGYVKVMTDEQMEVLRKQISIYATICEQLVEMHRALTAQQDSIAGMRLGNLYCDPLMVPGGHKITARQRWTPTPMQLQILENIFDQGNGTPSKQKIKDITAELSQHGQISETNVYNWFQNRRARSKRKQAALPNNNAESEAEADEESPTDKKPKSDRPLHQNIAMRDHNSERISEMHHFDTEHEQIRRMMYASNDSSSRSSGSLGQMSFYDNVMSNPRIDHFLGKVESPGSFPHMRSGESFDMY
Outline: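 Polyhistidine-tagged DsRed fusions of transcription factors, joined at the N-terminus, were expressed in E. coli BL21-CodonPlus and isolated on Ni–NTA. They were incubated at 200 nM for 1 h at 25 °C on a custom Agilent array, double-stranded and BSA-blocked, in PBS with 2% BSA, salmon testes DNA and 50 µM zinc acetate. The binding signal is per-feature fluorescence intensity (arbitrary units) read on an Axon 4000B scanner after washing.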

Sequence | binding signal
CGCGCCTGTCTGTCTCTGTTTGATTGATTCTTCTACGTCGCGGAGTCACCTAGTGCAG | 19300 fluorescence intensity (a.u.)
CTTTGACATAAGAAACAAATCTTAGTTCAGTTCTCCATCTCGGAGTCACCTAGTGCAG | 6830 fluorescence intensity (a.u.)
TACCCATCACCAAAATTACCATAAACACAACATACTTAGGCGGAGTCACCTAGTGCAG | 4380 fluorescence intensity (a.u.)
TGAAATGGTTAAATGATTTGGGTTGAAATATTATGAAAATCGGAGTCACCTAGTGCAG | 3220 fluorescence intensity (a.u.)
TGTTAAACTGAATATATAAATTTTATCTTTGACAAGCACTCGGAGTCACCTAGTGCAG | 27800 fluorescence intensity (a.u.)
GTTTGATTTCGATTGAAGCCTATTCATTGGTAATACGTAACGGAGTCACCTAGTGCAG | 13300 fluorescence intensity (a.u.)
AAACTTCATTTAGTAGATTGATTTTCTTAACCGAATATAGCGGAGTCACCTAGTGCAG | 9560 fluorescence intensity (a.u.)
AATTAAACTGCAAATTAAGCTTATTTCATGCTATGTTTAACGGAGTCACCTAGTGCAG | 16400 fluorescence intensity (a.u.)
TACTAATGATTTTATGTAGAACATCATCACATATCTTATACGGAGTCACCTAGTGCAG | 15800 fluorescence intensity (a.u.)
GAGGGTTTTAATTACTCACTGACATGTAGGGTCACGGGGTCGGAGTCACCTAGTGCAG | 6310 fluorescence intensity (a.u.)
TAAAATTGGAGTTTGTAAAGCTTGTTTCTTGTACGGGAATCGGAGTCACCTAGTGCAG | 9110 fluorescence intensity (a.u.)
ATTAATTACTCACCTAAACCATGCACTACACTTGAACAGACGGAGTCACCTAGTGCAG | 17400 fluorescence intensity (a.u.)
TGTTAGCTGATTAGGATGCCACGTCAGCTAAACCAGCTATCGGAGTCACCTAGTGCAG | 11100 fluorescence intensity (a.u.)
CTACCATAATTAATCACAAGTGCAGGTTGCTGCTGGGCGTCGGAGTCACCTAGTGCAG | 12900 fluorescence intensity (a.u.)
AATTAATTTCTAAATACAATCATTATTCACCTCGTAATATCGGAGTCACCTAGTGCAG | 7210 fluorescence intensity (a.u.)
ATAAAATTGCCACGTAAGTAATTTTATCAGACTAACCAACCGGAGTCACCTAGTGCAG | 6280 fluorescence intensity (a.u.)
CACAAACTATGATTATACGTACTACGACTAATGAAAGTTTCGGAGTCACCTAGTGCAG | 10100 fluorescence intensity (a.u.)
GAGACATTAGCACATGATTAATTGAGTATAAACTATTTTACGGAGTCACCTAGTGCAG | 12900 fluorescence intensity (a.u.)
AAATCTTAATTGAAGTGTAGTGGTAGTTTGTATGTTAGTTCGGAGTCACCTAGTGCAG | 27700 fluorescence intensity (a.u.)
TTAACAAAATTAACAAATTTTGTGCCAAAAGAGACAAGGCCGGAGTCACCTAGTGCAG | 18800 fluorescence intensity (a.u.)
AGAATTAAATAGGGGAAAATTGTTATTGATTGAAAAGTGGCGGAGTCACCTAGTGCAG | 34400 fluorescence intensity (a.u.)

Sequence | binding signal
TTTGTTATAATTTTAATTTACACGTTGCAACGCACGGATACGGAGTCACCTAGTGCAG | 5680 fluorescence intensity (a.u.)
GTATAACAGAATTTTGAGTTATCATCCCATTTGTATATTCCGGAGTCACCTAGTGCAG | 3950 fluorescence intensity (a.u.)
CAGATTATAATTGTCGACGCTATTTGTGATCCCGTGCATGCGGAGTCACCTAGTGCAG | 23500 fluorescence intensity (a.u.)
GTATAATTCATGGTTGATATTTGTTATTGTCTTTGTTTCTCGGAGTCACCTAGTGCAG | 5480 fluorescence intensity (a.u.)
GATCAATTATGATAGAGACCAATTTGGCACCTCTGTGATTCGGAGTCACCTAGTGCAG | 24100 fluorescence intensity (a.u.)
CAATTAATTATACATTAATACCACCTTGTTTTACGTAAATCGGAGTCACCTAGTGCAG | 27400 fluorescence intensity (a.u.)
GTGCAATAATTGCAGGTTACAAGACTTGTTAAACATACAACGGAGTCACCTAGTGCAG | 20300 fluorescence intensity (a.u.)
GATCAATCATCCTTGTTCACAAGGCTGCCTGACATGGATGCGGAGTCACCTAGTGCAG | 15500 fluorescence intensity (a.u.)
GAGAACTAATTAGATAACTAACCCAGTTTCATTGTATTCGCGGAGTCACCTAGTGCAG | 32800 fluorescence intensity (a.u.)
CCTTAATAAATCACTGATTTCATTTTAGGTTTCTCTTTACCGGAGTCACCTAGTGCAG | 22400 fluorescence intensity (a.u.)
CTAATCTAATCATCGGATTAGGAAATAAGTAAGCAAACAACGGAGTCACCTAGTGCAG | 6880 fluorescence intensity (a.u.)
GATTTGATCAAACGTGAAAATTGTATTGTAATACACATGCCGGAGTCACCTAGTGCAG | 3890 fluorescence intensity (a.u.)
TTCTAACAGAAATATTGATTAGGATTAACCATGTGACACACGGAGTCACCTAGTGCAG | 30300 fluorescence intensity (a.u.)
ATAATAGCTAGATTAGATAGCAATCTGGTTTGCAGGTAGCCGGAGTCACCTAGTGCAG | 8920 fluorescence intensity (a.u.)
CGCGGGAATCAATCAATCGCCGTTCGCGTCGCGCCACGAGCGGAGTCACCTAGTGCAG | 10400 fluorescence intensity (a.u.)
AACTGCAAATTAGTAAAAGGCCAAGTCGAGACCCAGATCGCGGAGTCACCTAGTGCAG | 3900 fluorescence intensity (a.u.)
ATAAGTTAATTTAAATAAATGGAGTAGAATATTATGATAGCGGAGTCACCTAGTGCAG | 26300 fluorescence intensity (a.u.)
CTTGACACAAACTCCCACGAGCACTCCACTTACTCTCCGCCGGAGTCACCTAGTGCAG | 4370 fluorescence intensity (a.u.)
AATATAATCATGTGAGATCTTGTTATAAAGATTTAATTGTCGGAGTCACCTAGTGCAG | 3670 fluorescence intensity (a.u.)
CAATTTGCATAAATTGATGAGCCACACCTTTTGAGTGGACCGGAGTCACCTAGTGCAG | 23200 fluorescence intensity (a.u.)
CAAAATTTATTAAATATTAGTTTTAATGAATCTAATTTTACGGAGTCACCTAGTGCAG | 3210 fluorescence intensity (a.u.)

Reference: paper PMC7819943, “Rice protein-binding microarrays: a tool to detect cis-acting elements near promoter regions in rice”
